According to PubChem BioAssay AID686979 (National Center for Advancing Translational Sciences (NCATS), 2013):
Among all 420,000 compounds or so, about 50,000 (12%) were called active. Inconclusive means that the source gave no clear call. Such entries were picked first, then a sample of the others. Calls come from the whole dose curve; as a rule, active = well fitted inhibition curve with a large enough effect; inconclusive = small, poorly fitted or top-dose-only effect; inactive = flat fitted curve, though single readings scatter. No potency is given beside an inconclusive call; the fits are too rough.

Assay: qHTS for Inhibitors of human tyrosyl-DNA phosphodiesterase 1 (TDP1): qHTS in cells in presence of CPT; note: nearly all actives have a fitted effect of over 55% in size
Settings: chicken DT40 Tdp1-/-;hTDP1 cells + 20 nM CPT, ATP luminescence, 48 h; activity change, negative = growth inhibition: at 46.2 µM (top of the series) unless noted
Method in brief: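 Cell growth measured by CellTiter-Glo luminescence after a minimum 48 h, 37 C compound exposure with 20 nM CPT in Tdp1-knockout DT40 cells stably expressing hTDP1, seeded 400/well; qHTS titration format.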
% is set by controls: 0 for no effect and ±100 for the full control effect; potency is the fitted concentration of half-maximal effect; tags give direction and shape of the fitted curve.

SMILES	Potency	activity change, negative = growth inhibition
COc1cc2c(cc1OC)C(c1c(Cl)cccc1Cl)NC(=O)C2 (stereo not given)	inconclusive [inhibitor, single point]	
CCOC(=O)C1CCN(CC(=O)Nc2ccc(OC)c(Cl)c2)CC1	inactive	
CCCCC(=O)NC(c1ccc(C(C)C)cc1)c1ccc2cccnc2c1O (stereo not given)	active: 5.8 µM	
O=C(NNC(=S)Nc1ccccc1)c1ccc2ncccc2c1	inactive	
Fc1ccc(N2CCN(Cc3ccccn3)CC2)cc1	inactive	
O=C(O)/C=C/C(=O)NC1CCC(CC2CCC(NC(=O)/C=C/C(=O)O)CC2)CC1 (stereo not given)	inactive	
CC(=O)Nc1ccc(NC(=O)Cn2nc(C(=O)Nc3ccc(C)cc3)ccc2=O)cc1	inactive	
Cc1ccc(S(=O)(=O)Nc2ccccc2N2CCCCC2)cc1	inconclusive [inhibitor, single point]	
Cn1cc(C(=O)N2CCN(c3cccc(C(F)(F)F)c3)CC2)c2c3ccccc3n(C)c2c1=O	active: 23.1 µM	
O=C(CCl)NCCN1C(=O)S/C(=C\c2cccnc2)C1=O	inconclusive [inhibitor, single point]	
CCNC(=S)N1CCN(c2nc(CC)nc3sc4c(c23)CCCC4)CC1	inconclusive [inhibitor, single point]	
CCN1CCN(C(=O)NC2CC(=O)N(c3ccc(OC)cc3)C2)CC1 (stereo not given)	inactive	
O=C(COC(=O)c1cncc(Br)c1)Nc1ccc(S(=O)(=O)N2CCOCC2)cc1	inactive	
Cc1c(NC(=O)c2cccc(NC(=O)c3ccco3)c2)cccc1C(=O)O	inactive	
O=C(NC1CCCCC1)c1cccnc1Sc1ccccc1Cl	inactive	
CCSC1=N/C(=C/c2ccsc2)C(=O)N1c1ccccc1	inactive	
CC(C)(C)NC(=O)[C@H]1CC[C@H]2[C@@H]3CC[C@H]4NC(=O)C=C[C@]4(C)[C@H]3CC[C@]12C	inconclusive [inhibitor, single point]	
COc1cccc(NC(=O)C2CCCN(S(=O)(=O)c3ccc4[nH]c(=O)ccc4c3)C2)c1 (stereo not given)	inconclusive [inhibitor, single point]	
Cc1ccc(NC(=S)N2CCC(c3nc4ccccc4s3)CC2)cc1C	inconclusive [inhibitor, single point]	
CCC(Sc1nc2n[nH]c(C)c2c(=N)n1-c1cccc(Cl)c1C)C(=O)N(CC)CC (stereo not given)	inconclusive [inhibitor, single point]	
CC(C)Nc1ncnc2c1cnn2-c1ccc(Cl)cc1	inconclusive [inhibitor, single point]	
COc1ccc(N2CC(NC(=O)c3ccc4c(c3)OCO4)CC2=O)cc1 (stereo not given)	inactive	
CCc1[nH]c(=O)c(C#N)c2c1COC(C)(C)C2		inconclusive: -6.6% [inhibitor]

SMILES	Potency	activity change, negative = growth inhibition
C/C=C/c1ccc(OCC(=O)NNC(=O)CN(C)S(=O)(=O)c2ccc(C)cc2)c(OC)c1	inconclusive [inhibitor, single point]	
COc1ccc(Br)cc1S(=O)(=O)Nc1ncn[nH]1	inconclusive [inhibitor, single point]	
CN(C[C@H](Cc1ccccc1)N(C[C@H](Cc1ccccc1)N(CCc1cc(C(F)(F)F)cc(C(F)(F)F)c1)N=O)N=O)N=O	inconclusive [inhibitor, single point]	
CCOc1ccc(OCC)c(NS(=O)(=O)c2c(C(=O)N3CCC(C)CC3)c(C)n(C)c2C)c1	inconclusive [inhibitor, single point]	
O=C(/C=C/c1ccc(-c2ccccc2[N+](=O)[O-])o1)c1ccccc1	inconclusive [inhibitor, single point]	
Clc1ccc(-c2nc(NCCCN3CCOCC3)c3ccccc3n2)cc1	inconclusive [inhibitor, single point]	
NCCNc1ccc([N+](=O)[O-])c(NC2CC2)c1	inconclusive [inhibitor, single point]	
CC1CCc2nc3ncn(Cc4ccccc4F)c(=O)c3cc2C1 (stereo not given)	inconclusive [inhibitor, single point]	
Cc1cc(=O)oc2c(C)c(OCC(=O)NC3CCN(Cc4ccccc4)CC3)ccc12	inconclusive [inhibitor, single point]	
CC(C)Oc1ccc(C(=O)OCC(=O)c2ccc[nH]2)cc1	inactive	
CN(CC(=O)Nc1ccc(Cl)c(C(F)(F)F)c1)C(=O)Cc1ccsc1	active: 16.4 µM	
C=CCC[C@H](Cc1ccc(F)cc1)C(=O)OC[C@@H](NC(=O)[C@@H](CC=C)CC(=O)N[C@@H](CO)Cc1ccccc1)C(C)(C)C	active: 20.6 µM	
Cc1ccc2cc(CCNC(=O)c3ccc(S(=O)(=O)N4CCCCC4)cc3)c(=O)[nH]c2c1	inconclusive [inhibitor, single point]	
O=S(=O)(c1ccc(-c2csc(-c3cccnc3)n2)cc1)N1CCCC1	inconclusive [inhibitor, single point]	
O=c1ccc2ccc(O[C@@H]3O[C@H](CO[C@@H]4OC[C@](O)(CO)[C@H]4O)[C@@H](O)[C@H](O)[C@H]3O)cc2o1	inconclusive [inhibitor, full curve, poor fit]	
Cc1cc(NS(=O)(=O)c2ccc(NC(=O)C(C)Oc3cc(C)c(Cl)c(C)c3)cc2)no1 (stereo not given)	inactive	
COc1ccc(-n2cnnc2SCC(=O)NC2CCCCC2)cc1	inactive	
COc1cc2c(cc1OC)CN(C1CCC(C(C)(C)C)CC1)CC2 (stereo not given)	inconclusive [inhibitor, single point]	
Cc1ccc(C(=O)OCC(=O)Nc2sccc2C(N)=O)cc1NC(=O)c1ccco1	inconclusive [inhibitor, partial curve]	
COc1cccc(C(=O)NC23CC4CC(CC(C4)C2)C3)c1	inactive	
CCCc1ccc(-c2cc(C(=O)NC3=NCCS3)c3ccccc3n2)cc1	inconclusive [inhibitor, single point]	
COc1cccc(-c2cncnc2NCCc2c[nH]c3ccc(OC)cc23)c1	active: 23.1 µM	
